Data reported in publication PMC4336329 (PLoS ONE, 2015).
Out of some 310,000 compounds screened, about 14,000 (4.5%) showed an effect of 50% or more. The effect is printed as a negative number. Some of the results follow.

What follows are compounds tested against human ether-à-go-go-related gene (hERG) potassium channel (human, UniProt Q12809) (assay: primary screen, population patch clamp on CHO cells stably expressing hERG).
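Further: peak tail current of the secondary pulse compared with the same well before compound.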

human ether-à-go-go-related gene (hERG) potassium channel, sequence (Q12809 whole entry, looked up): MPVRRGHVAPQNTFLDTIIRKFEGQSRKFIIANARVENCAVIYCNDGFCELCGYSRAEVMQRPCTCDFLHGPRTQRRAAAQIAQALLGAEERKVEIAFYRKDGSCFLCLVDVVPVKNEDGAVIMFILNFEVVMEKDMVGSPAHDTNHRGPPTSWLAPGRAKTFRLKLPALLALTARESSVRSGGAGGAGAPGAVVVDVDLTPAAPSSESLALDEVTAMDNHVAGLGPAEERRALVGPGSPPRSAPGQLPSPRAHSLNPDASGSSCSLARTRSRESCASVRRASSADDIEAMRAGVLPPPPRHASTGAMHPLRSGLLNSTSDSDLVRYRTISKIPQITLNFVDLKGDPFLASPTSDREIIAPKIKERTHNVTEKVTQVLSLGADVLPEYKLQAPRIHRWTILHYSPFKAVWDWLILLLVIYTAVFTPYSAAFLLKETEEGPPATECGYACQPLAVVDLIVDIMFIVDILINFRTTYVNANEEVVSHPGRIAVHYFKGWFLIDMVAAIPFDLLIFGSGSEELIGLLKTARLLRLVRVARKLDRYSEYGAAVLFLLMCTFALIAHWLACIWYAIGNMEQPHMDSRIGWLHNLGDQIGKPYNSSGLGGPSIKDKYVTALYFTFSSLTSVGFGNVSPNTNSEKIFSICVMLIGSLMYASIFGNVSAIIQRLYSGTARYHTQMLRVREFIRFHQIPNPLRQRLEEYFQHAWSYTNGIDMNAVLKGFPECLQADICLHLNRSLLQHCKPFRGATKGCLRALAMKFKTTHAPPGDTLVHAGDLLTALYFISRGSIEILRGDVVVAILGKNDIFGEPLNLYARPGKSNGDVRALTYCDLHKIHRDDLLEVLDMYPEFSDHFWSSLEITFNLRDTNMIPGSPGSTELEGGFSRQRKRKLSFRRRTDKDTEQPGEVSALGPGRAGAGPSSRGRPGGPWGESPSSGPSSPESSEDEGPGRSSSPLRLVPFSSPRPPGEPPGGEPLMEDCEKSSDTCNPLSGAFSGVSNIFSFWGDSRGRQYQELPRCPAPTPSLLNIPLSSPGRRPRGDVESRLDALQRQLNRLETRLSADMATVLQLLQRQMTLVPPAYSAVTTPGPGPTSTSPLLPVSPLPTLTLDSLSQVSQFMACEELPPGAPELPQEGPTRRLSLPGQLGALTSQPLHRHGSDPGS

| SMILES | hERG current change (%, negative = inhibition) at 10uM [%] |
| --- | --- |
| O=C(Cn1cnc2ccccc21)NCc1ccccc1 | 9.76 |
| Fc1ccc(N2CCN(c3nc(CN4CCOCC4)nc4scc(-c5ccccc5)c34)CC2)cc1 | -5.05 |
| COC(=O)c1ccccc1-c1ccc(/C=N/Nc2nc(N3CCCC3)nc(N3CCCC3)n2)o1 | -7.83 |
| CN(CCC#N)C(=O)Cn1nc(Cc2ccncc2)c2ccccc2c1=O | -9.03 |
| Cn1c(SCC(=O)Nc2cccc(NC(=O)c3cccs3)c2)nnc1-c1ccncc1 | -11 |
| COc1ccc2c(Cl)c(C(=O)N/N=C3\CCCC(=O)C3)sc2c1 | -9.05 |
| COCCN1C(=O)N(c2cccc(OC)c2)C(=O)C1CC(=O)Nc1cccc(F)c1 (centres unmarked) | 8.84 |
| COC(=O)[C@H](CCSC)NC(=O)Nc1cccc(C)c1C | 12.9 |
| CCOC(=O)c1sc2nc(CSc3nc4ccccc4n3CC)[nH]c(=O)c2c1C | 4.55 |
| COC(=O)c1nc(NC(=O)c2ccccc2)n[nH]1 | -9.58 |
| O=C1S/C(=C\C=C\c2ccco2)C(=O)N1c1ccccc1 | 1.52 |
| Cc1ccnc(NC(=O)c2ccc(C(=O)c3ccccc3)cc2)c1 | -13.1 |
| COc1ccccc1NC(=O)C(C)N1C(=O)c2ccccc2C1=O (centres unmarked) | 5.76 |
| Cn1c(=O)c2c(-c3ccccc3F)c3c(nc2n(C)c1=O)-c1ccccc1C3O (centres unmarked) | -1.86 |
| Cc1sc2ncnc(Sc3nnnn3-c3ccccc3)c2c1C | -2.04 |
| CC(C)(C)c1ccc(OCC(=O)Nc2ccc(C(=O)Nc3ccccc3C(=O)O)cc2)cc1 | 30.4 |
| CC(=O)O/N=C/c1c(NCc2ccccc2)nc2c(C)cccn2c1=O | -5.54 |
| Cc1ccccc1NC(=O)/C(=C/c1ccco1)c1ccccc1 | -3.77 |
| Cn1cnnc1Sc1cc(N2CCN(S(=O)(=O)c3ccccc3)CC2)ccc1[N+](=O)[O-] | -60.5 |
| O=C(Nc1ccc(CN2CCCCC2)cc1)c1cccc(Br)c1 | -86.7 |
| CCOc1ccc(CCNC(=O)CSc2cc(=O)n(C)c3cc(Cl)ccc23)cc1OCC | -3.7 |
| CN(CCOc1ccccc1)C(=O)c1ccc(OC2CCN(C(=O)C3CC3)CC2)cc1 | -25.7 |
| CN(Cc1ccccc1)C(=O)COC(=O)c1cc(-c2ccc(Cl)s2)nc2ccccc12 | -4.81 |

| SMILES | hERG current change (%, negative = inhibition) at 10uM [%] |
| --- | --- |
| C[C@@H]1CC=C[C@H]2[C@H]1C(=O)N(Cc1ccccc1)[C@H]2c1ccc2ccccc2c1/C=C/c1ccccc1 | 9.88 |
| Cc1ccc(S(=O)(=O)NCc2ccncc2)cc1C | 18.1 |
| COc1ccc(OC)c(C(=O)c2ccc(C(=O)O)cc2)c1 | 5.23 |
| COc1ccc(C(=O)Cn2c(NCCCl)nc3ccccc32)cc1.Cl | -9.33 |
| CCOc1ccc(C2CC(=O)NC(SC)=C2C#N)cc1 (centres unmarked) | 8.52 |
| Cc1c(C)c(C)c(C(=O)C2CCN(c3ccc([N+](=O)[O-])cn3)CC2)c(C)c1C | 12.8 |
| Cc1nc2ccccc2nc1N1CCC(C)CC1 | -5.78 |
| Cc1ccc(NC(=O)C2CCCN(C(=O)c3ccc(Cl)cc3)C2)cc1S(=O)(=O)N1CCOCC1 (centres unmarked) | -23.9 |
| O=C(CSCc1ccc(Cl)cc1)Nc1ccc(-c2nnc(-c3ccccc3)o2)cc1 | 1.35 |
| O=C1CSC(c2ccccc2)N1c1ccc([N+](=O)[O-])cc1 (centres unmarked) | -32.5 |
| C/C(N)=C(/C#N)C(=O)CSc1nnc(Cc2ccccc2F)n1N | 8.69 |
| CCCCOc1ccc(C2CC(=O)N(C)C2=O)cc1 (centres unmarked) | -3.48 |
| COc1ccc(C(=O)c2c3ccc([N+](=O)[O-])cc3[n+]([O-])n2CCCC(N)=O)cc1 | -34.6 |
| CCC(=O)N1CCN(c2ccc(NC(=O)c3ccccc3)cc2)CC1 | 0.185 |
| COc1ccc(C(=O)NCCCCc2ccccc2)cc1 | -4.68 |
| Cc1cccc(OCCn2c(=S)[nH]c3ccccc32)c1 | 11 |
| Cc1ccc(-c2nc(N)sc2C)cc1 | -16.9 |
| CCOC(=O)CN1C(=O)C(=O)N(Cc2cccc(C)c2)C1=O | 13.1 |
| COc1ccc(COCC(O)CN2CCCC(C(F)(F)F)C2)cc1 (centres unmarked) | 2.45 |
| CCN(CC)S(=O)(=O)c1cccc(N=NC2=C(O)CCCC2=O)c1 | -15.7 |
| O=C(CCn1c(=O)oc2ccccc21)NCc1cccs1 | 5.01 |
| COc1ccc(C)cc1NC(=O)C(NC(=O)c1cc(OC)c(OC)c(OC)c1)C(C)C (centres unmarked) | 12 |
| CCc1nnc(NC(=O)CSc2nc3c(cc2C#N)CCC3)s1 | -6.61 |

| SMILES | hERG current change (%, negative = inhibition) at 10uM [%] |
| --- | --- |
| CCc1ccccc1NC(=S)N1CCNC(=O)C1CC(=O)OC (centres unmarked) | 15.1 |
| Cc1ccc(NC(=O)CCN2C(=O)CSC2=O)cc1 | 3.32 |
| COc1ccc(-c2noc(N3CCC(C(=O)Nc4cc(OC)ccc4OC)CC3)n2)cc1 | -0.199 |
| COc1ccc(N2C(=O)CC(Sc3nnc(-c4ccccc4F)n3C)C2=O)cc1 (centres unmarked) | 19.8 |
| COc1ccc(CC(=O)N2CCC3(CC2)NCCc2[nH]cnc23)cc1 | 20.3 |
| CCn1c(CC(=O)Nc2ccc(C)cc2)n[nH]c1=S | 21.6 |
| O=C(CCc1ccccc1Cl)Nc1cccc(S(=O)(=O)N2CCCC2)c1 | 0.824 |
| COC(=O)c1sccc1NC(=O)c1ccccc1[N+](=O)[O-] | 3.79 |
| Clc1cccc(/C=N/N2CCN(Cc3ccccc3)CC2)c1 | 11.6 |
| Cc1nn(-c2ccccc2)c(Cl)c1/C=N/NC(=O)c1ccccc1NS(=O)(=O)c1cccs1 | -0.372 |
| O=C(NCCc1cnc[nH]1)Nc1cccc(C(F)(F)F)c1 | -8.58 |
| CCn1cc(C(=O)N[C@@H](CCSC)C(=O)NC(C)(C)CO)c(=O)c2cc3c(cc21)OCO3 | 20.8 |
| CCOC(=O)N1CCN(S(=O)(=O)N2CCCC(C(=O)NCCCN3CCCCC3)C2)CC1 (centres unmarked) | 10 |
| COCC(C)n1c(C)cc(C(=O)CSc2nnnn2-c2ccc(O)cc2)c1C (centres unmarked) | -17.7 |
| COc1ccc(NC(=O)NCc2ccncc2)cc1 | 13.8 |
| CCCCN1CC[C@H]2C=CC[C@@H](C(=O)NCCc3ccccc3)[C@H]2C1=O | -6.93 |
| Cn1nnnc1SCC(=O)Nc1ccccc1Cc1ccccc1 | -5.05 |
| Cc1sc2ncn(CC(=O)NCCCC(=O)N3CCC(C(N)=O)CC3)c(=O)c2c1C | 20.4 |
| O=C(c1ccc2ccccc2c1)N1CCCC1 | 19.2 |
| COc1ccc(CN(C(=O)CN2C(=O)COc3ccccc32)C2CCCC2)c(OC)c1 | -13.9 |
| COc1ccccc1C(=O)C1CCCN(C(=O)c2ccc3c(c2)OCCO3)C1 (centres unmarked) | 2 |
| Cc1ccccc1OCC(=O)Nc1ccc(S(=O)(=O)Nc2ccccn2)cc1 | 0.077 |
| COc1ccccc1CNS(=O)(=O)c1c(C)[nH]c(=O)[nH]c1=O | 11.7 |

| SMILES | hERG current change (%, negative = inhibition) at 10uM [%] |
| --- | --- |
| Cc1ccccc1NC(=O)c1ccc(Cl)c(NC(=O)c2cccnc2)c1 | -6.19 |
| COc1ccc(COC(=O)c2c(C)nn(-c3ccccc3)c2Cl)cc1 | 4.32 |
| CSCCC(NS(=O)(=O)c1ccc(C)cc1)C(=O)N1CCN(C(c2ccccc2)c2ccccc2)CC1 (centres unmarked) | 12.8 |
| COc1ccc(N2CCc3c(C)nc(SC)nc32)cc1 | 3.4 |
| Cc1ccccc1C(=O)NNC(=S)NC(=O)c1ccccc1 | 32.6 |
| CN1CCN(c2ccc3nccnc3c2)CC1 | 5.45 |
| O=C1C(Cl)=C(NCc2cccnc2)C(=O)c2ccccc21 | -3.77 |
| CNC(=O)CCSSCCC(=O)NC | 15.9 |
| Cc1c(N2C(=O)/C(=C/C3CC=CCC3)SC2=S)c(=O)n(-c2ccccc2)n1C (centres unmarked) | 2.86 |
| O=C(CSc1nccn1Cc1ccccc1)NCc1ccccc1 | -0.489 |
| O=C(NC1CSCC1OC(=O)c1ccccc1)c1ccccc1 (centres unmarked) | -21.1 |
| CC(/C=N/NC(=O)C(O)c1ccccc1)=C\c1ccccc1 (centres unmarked) | -11.5 |
| Cn1c(Cc2ccc3c(c2)OCO3)nnc1SCC(=O)NC1CCCC1 | 4.01 |
| CC(CN1CCCCC1)c1ccccc1.O=C(O)C(=O)O (centres unmarked) | 13.1 |
| O=C(NCCCNCc1ccccc1)c1ccc(/C=N/O)nc1 | -14.2 |
| CCOc1ccc(NC(=O)CNC(=O)c2nn(-c3ccc(OC)cc3)c(=O)c3ccccc23)cc1 | 21.2 |
| Cc1nnc(SCC(=O)N2CCOCC2)n1C | -1.96 |
| COc1ccc(NC(=O)NC(C)c2ccncc2)cc1OC (centres unmarked) | -0.974 |
| CCN(CC(=O)Nc1c(F)cccc1F)C(=O)CNC(=O)c1ccc2c(c1)OCO2 | -6.36 |
| Cc1cn(C(=O)C(C)N2C(=O)c3ccccc3C2=O)c(C)n1 (centres unmarked) | -1.3 |
